# Results: PubChem BioAssay AID1159614 (National Center for Advancing Translational Sciences (NCATS), 2016)
# The whole screen tested about 45,000 compounds, of which about 65 (0.1%) were called active. Calls follow the shape of the dose curve; as a rule, active = well fitted activation curve with a large enough effect; inconclusive = small, poorly fitted or top-dose-only effect; inactive = no such curve, though single readings can be large or run the other way. The list shows a part of the results.
# Molecular target: Galactocerebrosidase (Homo sapiens) (UniProt P54803)
# Experiment: A Novel Cell-Based Assay to Identify Small Molecules for B -Galactocerebrosidase; also: nearly all actives have a fitted effect of over 65% in size; as to activation: 0% is about no effect
# Conditions: 145M-Twi-hGALC-G270D cells (Twitcher mouse brain line with human GALC G270D), HMU-beta-Gal fluorescence, 48 h; series mostly up to 57.5 µM; activation: at the top concentration
# Method in brief: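 Fluorescence readout: HMU-β-gal cleavage by mutant GALC (0.1 mM final, citrate/phosphate pH 5.2 with 1 mg/mL taurocholate), stopped with carbonate/bicarbonate plus Triton X-100. Cells: murine Twitcher 145M-Twi expressing human G270D GALC; qHTS for activators.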
# Potency is read from the fitted curve at half-maximal effect.
# Sequence of UniProt P54803 (P54803 whole entry, looked up): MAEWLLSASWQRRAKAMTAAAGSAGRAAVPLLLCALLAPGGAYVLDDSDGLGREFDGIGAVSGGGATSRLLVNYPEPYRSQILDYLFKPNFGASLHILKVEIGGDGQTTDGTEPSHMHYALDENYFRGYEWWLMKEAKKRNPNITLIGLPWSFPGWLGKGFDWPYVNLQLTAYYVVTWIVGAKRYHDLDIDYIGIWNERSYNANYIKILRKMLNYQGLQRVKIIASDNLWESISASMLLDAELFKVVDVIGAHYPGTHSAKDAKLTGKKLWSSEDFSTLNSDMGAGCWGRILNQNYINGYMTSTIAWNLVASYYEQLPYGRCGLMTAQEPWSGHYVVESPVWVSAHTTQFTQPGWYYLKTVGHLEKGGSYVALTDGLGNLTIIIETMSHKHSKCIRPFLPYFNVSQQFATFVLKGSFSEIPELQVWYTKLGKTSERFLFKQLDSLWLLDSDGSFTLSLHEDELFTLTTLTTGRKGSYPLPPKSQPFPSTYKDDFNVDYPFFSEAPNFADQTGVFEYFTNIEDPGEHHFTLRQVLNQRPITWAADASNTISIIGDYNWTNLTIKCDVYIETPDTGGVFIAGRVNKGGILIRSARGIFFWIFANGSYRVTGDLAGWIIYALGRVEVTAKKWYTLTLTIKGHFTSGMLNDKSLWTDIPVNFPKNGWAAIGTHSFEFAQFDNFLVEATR
SMILES,activation,Potency
Cc1ccc(-c2nc(-c3cc4cccc(OCc5cccc(C)c5)c4oc3=O)no2)cc1,inactive: -15.4%,–
CC(NC(=O)Nc1cc(Cl)ccc1Cl)c1c(-n2cccc2)sc2c1CCCC2 (stereo not given),inactive: -16.3%,–
COc1ccc(N2CCN(C(=O)CCn3c(=O)c4cccn4c4cccnc43)CC2)cc1,inactive: 4.69%,–
CCOC(=O)c1ccc(NC(=O)c2ncn(-c3ccccc3)n2)cc1,inactive: -7.87%,–
CCN(CC)c1ccc(C(=O)N2CCC(c3c[nH]c4ccccc34)(c3c[nH]c4ccccc34)CC2)cc1,inactive: -20%,–
O=C(c1ccc2c(c1)N(Cc1ccccc1F)C(=O)c1ccccc1S2=O)N1CCN(c2ccccc2)CC1 (stereo not given),inactive: -7.41%,–
Cc1ccc(NC(=O)/C(C#N)=C/c2cc(C)n(-c3ccc(F)cc3)c2C)cc1C,inactive: -12.4%,–
CCc1ccc(NC(=O)Cn2c3ncccc3c(=O)n2-c2ccc(C)c(C)c2)cc1,inactive: -32%,–
Cc1ccc(CNC(=O)c2ccc(-n3cnc4cccnc43)cc2)cc1,inactive: -15.4%,–
CCc1c(C)nc2nncn2c1Nc1ccc(C(C)C)cc1,inactive: -31.3%,–
CCOC(=O)c1ccc(NC(=O)CC2C(=O)N(c3ccc(F)cc3)C(=O)N2Cc2ccc3c(c2)OCO3)cc1 (stereo not given),inactive: -27.6%,–
Cc1ccc(C)c(NS(=O)(=O)c2cc3c(cc2Cl)NC(=O)CO3)c1,inactive: -9.91%,–
CCOC(=O)c1cccc(NC(=O)C2CCN(S(=O)(=O)c3cn(C)cn3)CC2)c1,inactive: -0.987%,–
COc1ccccc1Nc1nc2ccc(Cl)cc2nc1-n1nc(C)cc1C,inactive: -13.6%,–
COc1ccc(C2CC(=O)Nc3c2c(=O)[nH]c2nc4ccccc4n32)cc1OC (stereo not given),inactive: -18.7%,–
COCCNC(=O)C(=O)NCC(c1cccnc1)N1CCN(c2ccccc2F)CC1 (stereo not given),inactive: -9.64%,–
Cc1ccc2oc3c(c(=O)c2c1)C(c1ccc(F)cc1)N(c1nc(C)c(C)s1)C3=O (stereo not given),inactive: -16.8%,–
COc1ccc(NC(=O)c2nc3nc(C)cc(C(F)F)n3n2)c(C)c1,inactive: -1.23%,–
COc1cc2ccccc2cc1C(=O)Nc1ccc2oc(-c3cccc(Cl)c3Cl)nc2c1,inactive: -10.7%,–
CC(C)(C)OC(=O)N1CCC(c2c(C(=O)NCCN3CCC(Cc4ccccc4)CC3)cnn2-c2ccccc2)CC1,inactive: -13.9%,–
CCc1ccc(NC(=O)N2CC(C)Oc3ccc(C)cc32)cc1 (stereo not given),inactive: 2.04%,–
COCCCNc1ncnc2c1cnn2-c1ccc(F)cc1,inactive: -24.7%,–
CCc1ccc(S(=O)(=O)c2nnn3c2nc(N2CCCC2)c2sccc23)cc1,inactive: -4.47%,–
CCCn1c(NCc2ccccc2C)nc2ccccc21,inactive: 0.319%,–

SMILES,activation,Potency
COc1ccc(-n2cc(-c3ccccc3)nc2SCC(=O)Nc2ccccc2)cc1Cl,inactive: -4.52%,–
CN1C(=O)Cc2cc(S(=O)(=O)CCC(=O)N3CCN(c4ccccc4F)CC3)ccc21,inactive: 10.4%,–
COc1ccc(NC(=O)COCc2cc(-c3cccs3)on2)cc1,inactive: -15.4%,–
Cc1ccccc1C1C=C(c2ccc(Cl)cc2)Nc2nnnn21 (stereo not given),inactive: 1.27%,–
CCOC(=O)c1ccc(NC(=O)Cn2cnc(S(=O)(=O)N3CCCC3)c2)cc1,inactive: -5.04%,–
COc1ccc(-n2nc3c(N4CCCC(C(=O)NCCc5ccc(C)cc5)C4)nnc(C)c3c2C)cc1 (stereo not given),inactive: 1.13%,–
COc1ccc(-c2cc(C(F)(F)F)n3nc(C(=O)Nc4cccc(Cl)c4C)cc3n2)cc1,inactive: -13.3%,–
COc1cc(C2c3c(oc4ccccc4c3=O)C(=O)N2c2nnc(C(C)C)s2)cc(OC)c1OC (stereo not given),inactive: -15.6%,–
CCOc1ccccc1CNC(=O)c1cc(-c2ccc(OC)cc2)nc2ccc(C(C)C)cc12,inactive: -4.66%,–
CCOc1ccc(OCC)c(NC(=O)CCc2c(C)nc3c(c2C)c(=O)n(C)c(=O)n3C)c1,inactive: 5.6%,–
O=C(c1ccc2c(c1)N(Cc1ccccc1)C(=O)c1ccccc1S2(=O)=O)N1CCN(c2ccccn2)CC1,inactive: -15.8%,–
CCSc1ncc(Cl)c(C(=O)Nc2c(C(=O)Nc3ccc(Cl)cc3)oc3ccccc23)n1,inactive: 12.7%,–
COc1ccc(/C=C/c2noc(-c3ccccc3O)n2)cc1OC,inactive: -3.4%,–
Cc1ccc(Cn2ccn(Cc3ccccc3C)c(=O)c2=O)cc1,inactive: -11.6%,–
COC(=O)c1ccccc1NC(=O)Cn1c(=O)n(-c2ccc(Cl)cc2)c(=O)c2c(C)c(C)sc21,inactive: -1.28%,–
COc1ccc(CNC(=O)c2ccc3c(c2)nc2n3CCCCC2)c(OC)c1,inactive: 3.26%,–
CCOC(=O)c1cccc(NS(=O)(=O)c2cn(C)c(C)n2)c1,inactive: -17.7%,–
Cc1cc(C)n(-c2nc3ccccc3nc2Nc2cc(C(=O)O)ccc2C)n1,inactive: -6.78%,–
Cc1cc(C)cc(-n2nnc(-c3nc(-c4ccccc4F)no3)c2C)c1,inactive: -22.4%,–
COc1cc(NS(=O)(=O)c2ccc3c(c2)CCCN3C(C)=O)cc(OC)c1OC,inactive: -17.9%,–
Cc1ccc(CN2CCN(CC(=O)NCc3ccccc3Cl)C2=O)cc1,inactive: -0.781%,–
COc1cccc(-c2cc(C(=O)Nc3ccc(C)cc3)[nH]n2)c1,inactive: -17.3%,–
CCOc1ccc(C(=O)N2CCCCC2CCN2CCOCC2)cc1 (stereo not given),inactive: -8.45%,–
COc1ccc(NC(=O)c2sc3nc(C)c(C(=O)Nc4ccc(Cl)cc4)c(-c4ccc(Br)cc4)c3c2N)cc1,inactive: -14.8%,–

SMILES,activation,Potency
Cc1ccc(NC(=O)C(=O)NCC(c2cccnc2)N2CCc3ccccc32)cc1Cl (stereo not given),inactive: -6.96%,–
COc1ccc(S(=O)(=O)N(CC(=O)NCc2ccc(C)cc2)c2ccc(Cl)cc2)cc1,inactive: 1.6%,–
Cc1c(Cl)cccc1NC(=O)CCn1nc(C)c2c(C)n(-c3ccccc3)nc2c1=O,inactive: -16.5%,–
O=C(Nc1ccc(F)c(Cl)c1)c1cc(S(=O)(=O)N2CCCc3ccccc32)ccc1F,inactive: -25.5%,–
CCOc1ccccc1NC(=O)CN1C(=O)C2(SCC(=O)N2c2cccc(F)c2)c2ccccc21 (stereo not given),inactive: -6.83%,–
COc1ccccc1N1CCN(CC(O)COc2cc(C)cc(C)c2)CC1 (stereo not given),inactive: -29.2%,–
CCOc1ccc(N2C(=O)N(Cc3ccc(C)cc3C)c3ccccc3S2(=O)=O)cc1,inactive: -14%,–
CCn1cc(C(=O)N2CCN(c3cc(C)ccc3C)CC2)c(=O)c2cc(S(=O)(=O)N(C)C3CCCCC3)ccc21,inactive: -11.8%,–
Cc1cccc(Nc2c3c(nc4nncn24)CCC3)c1,inactive: 9.17%,–
COc1ccc(-c2ccc3c(N)c(C(=O)Nc4cc(F)ccc4C)sc3n2)cc1,–,active: 15.8 µM
Cc1ccc(-c2cc(C(=O)NCCc3ccccc3)c3c(-c4ccc(C)cc4)[nH]nc3n2)cc1,inactive: -14.5%,–
COc1cccc(CNC(=O)CCCN2C(=O)CSc3c2c(C)nn3-c2ccccc2)c1,inactive: -12.3%,–
O=c1c2ccccc2n(Cc2cccc(F)c2)c(=O)n1Cc1ccccc1Cl,inactive: -5.02%,–
Cc1cccc(NS(=O)(=O)c2ccc3c(c2)CCN3C(=O)CCC(=O)O)c1C,inactive: -7.34%,–
CCN(c1ccccc1)S(=O)(=O)c1ccc(NC(=O)c2cc(=O)c3cc(C)c(C)cc3o2)cc1,inactive: -18.4%,–
CCCCN1CCc2nc(N3CCN(c4ncccn4)CC3)ncc2C1,inactive: -7.19%,–
Cc1ccc(NC(=O)CSc2nc3c([nH]c4ccccc43)c(=O)n2-c2ccccc2)c(C)c1,inactive: -8.96%,–
CCOc1ccc(C(=O)Nc2ccc3nc(SCc4ccccc4)sc3c2)cc1,inactive: -16.3%,–
Cc1nc2c(-c3ccc(F)cc3)c(C)nn2c(C)c1CCC(=O)NCc1ccc(Cl)cc1,inactive: -14.5%,–
CCOc1ccc(NC(=O)c2ccc(-c3ccccc3)s2)cc1,inactive: -13.9%,–
COc1ccccc1N1CCN(C(=O)Cn2c(=O)nc(-c3ccccc3)c3cc(Cl)ccc32)CC1,inactive: -17.8%,–
COc1cccc(-n2cc(C(=O)NCc3cccc(Cl)c3)c3ccccc3c2=O)c1,inactive: 2.08%,–
COc1ccc(S(=O)(=O)Nc2cc3c(cc2NCc2ccccc2)n(C)c(=O)n3C)cc1OC,inactive: -14.1%,–
CCOC(=O)Cn1c(=O)n(C2CCCCC2)c2nc(-c3ccc(Cl)cc3)nc(C(N)=O)c21,inactive: -6.64%,–

SMILES,activation,Potency
CC(C)c1ccc(S(=O)(=O)Nc2ccc3oc4c(c3c2)C(=O)CC(C)(C)C4)cc1,inactive: 6.25%,–
Cc1ccc2c(=O)cc(CSc3nnc(-c4ccccc4)n3C)[nH]c2c1C,inactive: 2.26%,–
Cc1cc(-c2nc3ncccc3o2)ccc1NC(=O)c1ccc(Br)cc1,inactive: -7.96%,–
Cc1cc(C)c(NC(=O)c2cc3c(=O)n4ccccc4nc3n2C)c(C)c1,inactive: 5%,–
C[C@@H](O)[C@H]1C(=O)N2C(C(=O)O)=C(SCCN=CN)C[C@H]12,inactive: -12.4%,–
COc1ccc(NC(=O)c2c(-c3ccccc3)c(-c3ccccc3)nn(C)c2=O)c(OC)c1,inactive: -8.23%,–
CSc1ccc(CNC(=O)c2ccccc2NC(=O)c2nsc3ccccc23)cc1,inactive: -10.8%,–
CC(=O)N1c2ccccc2C(=O)C1N1CCN(c2ccccc2)CC1 (stereo not given),inactive: -12.1%,–
COc1ccc(OCC(=O)NCC(c2ccc(Cl)cc2)N2CCCCC2)cc1 (stereo not given),inactive: -11%,–
CN(CC1(C)CCCO1)S(=O)(=O)c1ccc(Cl)c(S(N)(=O)=O)c1 (stereo not given),inactive: -7.43%,–
Cc1c(Cl)cccc1NC(=O)c1ccc(C(=O)Nc2cccc(Cl)c2C)cc1,inactive: -10%,–
COCCCNC(=O)c1sc2nc(C)c(C(=O)Nc3ccc(C)cc3C)c(-c3ccc(Cl)cc3)c2c1N,inactive: -15.4%,–
CC(=O)N1CCc2c(sc3c2c(=O)n(-c2ccccc2C)c(=O)n3Cc2cccc(F)c2)C1,inactive: -12.9%,–
COc1cc(OC)cc(-n2nnc(-c3nc(-c4ccccc4Cl)no3)c2N)c1,inactive: -11.4%,–
CC1CCN(C(=O)c2cnn(-c3cccc(Cl)c3)c2C2CCN(C(=O)OC(C)(C)C)CC2)CC1,inactive: -16.9%,–
CC(=O)Nc1ccc(S(=O)(=O)N2CCC(Oc3ccc(-n4cnnn4)cc3)CC2)cc1,inactive: -4.32%,–
O=C(c1ccccc1Cl)n1nc(-c2cccnc2)nc1NCc1ccc(F)cc1,inactive: -10.8%,–
CCCCOc1ccc(C(=O)N(Cc2ccc(C(C)C)cc2)C2CCS(=O)(=O)C2)cc1 (stereo not given),inactive: -4.74%,–
COC(=O)c1scc(-c2ccccc2)c1S(=O)(=O)Nc1cccc(C)c1C,inactive: -3.13%,–
Cc1ccccc1Nc1c(-c2ccc(N3CCOCC3)cc2)nc2ncccn12,inactive: -10.9%,–
O=C(Nc1ccccc1-c1nc2ccccc2s1)c1cc(Cl)cc(Cl)c1,inactive: -20.9%,–
Cc1c(CNC(C)CCc2ccccc2)c(C(=O)O)c(C)n1Cc1ccc(F)cc1Cl (stereo not given),inactive: -25.5%,–
COC(=O)c1cc2sc(C)cc2n1Cc1ccc(Br)cc1F,inactive: 2.42%,–
